Data from publication PMC2939065.
No constants are given. Whether binding was seen depends on the method and setting. For some of these results: In cells and extracts the contact can be indirect. Some entries that bind do so weakly or less than the wild type.

Chains of the proteins cited; added tags and fusions are not shown. Residues count along the entry.
UniProt O08852, residues 24-4293: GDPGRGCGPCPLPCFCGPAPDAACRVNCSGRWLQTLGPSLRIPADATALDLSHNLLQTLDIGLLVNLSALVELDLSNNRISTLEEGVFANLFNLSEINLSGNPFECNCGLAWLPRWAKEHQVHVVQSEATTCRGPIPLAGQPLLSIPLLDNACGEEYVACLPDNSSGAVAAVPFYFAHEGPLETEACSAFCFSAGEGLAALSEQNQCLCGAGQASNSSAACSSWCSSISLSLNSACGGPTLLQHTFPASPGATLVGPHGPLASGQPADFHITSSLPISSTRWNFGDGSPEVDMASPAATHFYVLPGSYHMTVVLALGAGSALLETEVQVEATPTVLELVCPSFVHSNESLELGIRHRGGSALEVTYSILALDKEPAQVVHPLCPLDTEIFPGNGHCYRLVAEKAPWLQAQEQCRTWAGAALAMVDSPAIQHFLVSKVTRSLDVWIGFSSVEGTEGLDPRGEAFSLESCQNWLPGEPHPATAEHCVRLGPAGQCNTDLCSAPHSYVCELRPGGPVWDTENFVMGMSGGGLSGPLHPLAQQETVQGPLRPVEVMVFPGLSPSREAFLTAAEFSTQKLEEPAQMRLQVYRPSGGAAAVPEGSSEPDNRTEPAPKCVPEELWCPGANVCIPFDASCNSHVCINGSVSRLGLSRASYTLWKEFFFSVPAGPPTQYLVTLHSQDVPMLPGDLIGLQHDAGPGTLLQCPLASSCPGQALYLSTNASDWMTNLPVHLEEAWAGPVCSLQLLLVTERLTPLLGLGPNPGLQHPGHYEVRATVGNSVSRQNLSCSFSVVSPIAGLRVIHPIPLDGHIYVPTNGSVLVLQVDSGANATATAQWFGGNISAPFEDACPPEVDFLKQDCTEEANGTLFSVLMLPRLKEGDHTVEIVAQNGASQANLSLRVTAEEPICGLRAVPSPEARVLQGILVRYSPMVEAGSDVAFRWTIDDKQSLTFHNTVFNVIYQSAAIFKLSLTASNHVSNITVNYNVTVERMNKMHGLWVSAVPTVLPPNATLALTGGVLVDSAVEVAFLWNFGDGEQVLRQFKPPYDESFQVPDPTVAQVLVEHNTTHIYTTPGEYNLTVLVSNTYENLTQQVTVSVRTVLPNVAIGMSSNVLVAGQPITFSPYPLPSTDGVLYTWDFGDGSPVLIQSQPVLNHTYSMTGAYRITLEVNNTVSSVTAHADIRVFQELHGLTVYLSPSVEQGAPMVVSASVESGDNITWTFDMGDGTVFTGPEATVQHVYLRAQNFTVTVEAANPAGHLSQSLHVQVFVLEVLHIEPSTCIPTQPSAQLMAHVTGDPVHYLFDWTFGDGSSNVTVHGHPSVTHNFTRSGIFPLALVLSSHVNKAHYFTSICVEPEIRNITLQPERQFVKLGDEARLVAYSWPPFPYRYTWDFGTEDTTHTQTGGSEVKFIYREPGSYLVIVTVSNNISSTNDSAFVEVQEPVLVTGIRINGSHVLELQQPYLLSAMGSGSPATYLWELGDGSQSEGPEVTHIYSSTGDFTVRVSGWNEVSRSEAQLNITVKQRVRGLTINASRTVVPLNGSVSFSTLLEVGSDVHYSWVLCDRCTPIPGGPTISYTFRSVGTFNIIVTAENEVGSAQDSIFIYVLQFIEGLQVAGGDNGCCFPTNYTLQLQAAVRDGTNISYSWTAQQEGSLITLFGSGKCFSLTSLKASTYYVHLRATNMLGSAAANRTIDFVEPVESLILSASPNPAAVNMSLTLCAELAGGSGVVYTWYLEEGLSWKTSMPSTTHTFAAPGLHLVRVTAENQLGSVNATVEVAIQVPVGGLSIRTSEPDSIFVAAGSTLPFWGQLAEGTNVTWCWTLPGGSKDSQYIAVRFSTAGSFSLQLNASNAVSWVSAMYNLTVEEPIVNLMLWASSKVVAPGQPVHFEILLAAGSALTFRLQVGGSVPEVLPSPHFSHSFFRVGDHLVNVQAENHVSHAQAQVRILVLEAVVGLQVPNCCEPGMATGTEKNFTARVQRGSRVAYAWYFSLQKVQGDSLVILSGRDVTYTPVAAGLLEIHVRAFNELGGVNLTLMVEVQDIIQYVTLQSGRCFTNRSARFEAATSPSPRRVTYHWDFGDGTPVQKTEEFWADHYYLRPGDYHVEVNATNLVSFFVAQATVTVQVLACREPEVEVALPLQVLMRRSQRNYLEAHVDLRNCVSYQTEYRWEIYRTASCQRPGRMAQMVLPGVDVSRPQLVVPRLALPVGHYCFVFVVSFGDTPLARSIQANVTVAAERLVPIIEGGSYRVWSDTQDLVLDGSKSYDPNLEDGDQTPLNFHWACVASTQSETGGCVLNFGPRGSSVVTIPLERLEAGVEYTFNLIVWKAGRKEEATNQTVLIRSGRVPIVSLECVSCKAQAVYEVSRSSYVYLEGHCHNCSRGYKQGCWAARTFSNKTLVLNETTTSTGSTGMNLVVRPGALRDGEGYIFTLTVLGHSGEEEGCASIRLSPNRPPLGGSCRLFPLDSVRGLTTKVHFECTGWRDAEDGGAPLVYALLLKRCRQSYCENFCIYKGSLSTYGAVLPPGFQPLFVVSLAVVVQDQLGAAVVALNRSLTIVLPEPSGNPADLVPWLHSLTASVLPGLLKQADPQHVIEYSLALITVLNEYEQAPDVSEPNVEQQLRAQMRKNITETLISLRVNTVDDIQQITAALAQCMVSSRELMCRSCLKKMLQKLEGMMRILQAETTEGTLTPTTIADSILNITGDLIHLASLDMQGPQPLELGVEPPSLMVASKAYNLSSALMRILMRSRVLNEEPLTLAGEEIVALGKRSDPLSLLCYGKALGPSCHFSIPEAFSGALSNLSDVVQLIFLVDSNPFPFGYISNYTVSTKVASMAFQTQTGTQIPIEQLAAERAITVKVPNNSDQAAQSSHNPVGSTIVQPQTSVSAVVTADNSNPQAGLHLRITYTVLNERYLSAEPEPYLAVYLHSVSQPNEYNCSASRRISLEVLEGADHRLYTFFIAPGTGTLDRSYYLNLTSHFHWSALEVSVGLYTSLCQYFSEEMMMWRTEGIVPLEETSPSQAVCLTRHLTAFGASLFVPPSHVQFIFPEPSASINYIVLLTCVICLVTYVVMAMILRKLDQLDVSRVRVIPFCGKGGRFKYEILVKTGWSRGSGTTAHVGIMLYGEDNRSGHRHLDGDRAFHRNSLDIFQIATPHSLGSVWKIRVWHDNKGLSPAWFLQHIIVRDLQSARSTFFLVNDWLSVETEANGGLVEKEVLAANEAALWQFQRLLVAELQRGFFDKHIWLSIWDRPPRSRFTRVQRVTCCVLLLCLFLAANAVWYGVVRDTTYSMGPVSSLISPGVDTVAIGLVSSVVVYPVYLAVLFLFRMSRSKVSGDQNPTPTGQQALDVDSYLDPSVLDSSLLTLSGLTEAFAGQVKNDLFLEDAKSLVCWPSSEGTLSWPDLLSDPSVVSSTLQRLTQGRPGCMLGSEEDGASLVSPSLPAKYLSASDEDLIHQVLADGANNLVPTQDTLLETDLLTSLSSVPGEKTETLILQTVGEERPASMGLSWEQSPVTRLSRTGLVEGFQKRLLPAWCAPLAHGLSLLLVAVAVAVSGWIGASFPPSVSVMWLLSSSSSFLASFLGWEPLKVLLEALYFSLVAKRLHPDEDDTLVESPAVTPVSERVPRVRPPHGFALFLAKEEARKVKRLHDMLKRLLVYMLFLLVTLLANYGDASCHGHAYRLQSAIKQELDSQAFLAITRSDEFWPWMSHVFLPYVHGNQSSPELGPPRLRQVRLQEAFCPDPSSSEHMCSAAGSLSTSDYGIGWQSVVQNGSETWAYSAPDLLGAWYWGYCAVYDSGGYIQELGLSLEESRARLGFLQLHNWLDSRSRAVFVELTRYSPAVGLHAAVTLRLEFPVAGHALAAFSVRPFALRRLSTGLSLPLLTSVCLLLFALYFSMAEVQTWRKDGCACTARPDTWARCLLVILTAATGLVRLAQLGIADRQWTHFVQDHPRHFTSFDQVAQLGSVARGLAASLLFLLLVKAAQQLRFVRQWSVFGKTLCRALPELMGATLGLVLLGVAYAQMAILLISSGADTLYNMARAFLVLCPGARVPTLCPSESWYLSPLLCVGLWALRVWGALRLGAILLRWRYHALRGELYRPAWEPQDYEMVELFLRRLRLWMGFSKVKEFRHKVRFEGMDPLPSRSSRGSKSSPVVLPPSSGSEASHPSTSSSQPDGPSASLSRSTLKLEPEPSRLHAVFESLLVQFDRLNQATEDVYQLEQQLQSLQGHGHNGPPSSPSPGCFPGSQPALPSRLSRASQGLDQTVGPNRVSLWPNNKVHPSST

Assays:
[1] = target: T1, NPHP1-SH3 (15N-labelled SH3 domain of nephrocystin-1 for NMR and ITC) (human) (UniProt O15259); test: ITC; peptPP2 with NPHP1-SH3; integrated data corrected for heat of dilution, fit to a single site binding model; both purified
T1 sequence: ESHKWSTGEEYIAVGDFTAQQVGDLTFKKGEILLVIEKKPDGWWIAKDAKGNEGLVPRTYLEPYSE

[2] = target: T2, NPHP1-SH3-P203L (for NMR) (human) (UniProt O15259); test: NMR titration; 1H-15N HSQC of 15N NPHP1-SH3 (0.3 mM) with added peptide (0, 0.5, 1, 1.5, 2, 3, 4 equivalents for peptPP2); fast exchange; both purified
T2 sequence: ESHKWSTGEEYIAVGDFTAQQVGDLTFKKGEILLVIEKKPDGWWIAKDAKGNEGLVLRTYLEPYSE

[3] = target: endogenous HA-tagged PC-1 (Pkd1 HA/HA MEFs) (mouse (endogenous in MEFs)) (UniProt O08852); test: co-IP; endogenous proteins in MEFs from Pkd1 HA/HA or Pkd1 Myc/Myc mice; immunoprecipitation of tagged endogenous PC-1, blot for NPHP1; Pkd1 +/+ cells as control
[4] = target: endogenous Myc-tagged PC-1 (Pkd1 Myc/Myc cells) (mouse (endogenous in MEFs)) (UniProt O08852); test: as above
[5] = target: T1, NPHP1-SH3 (15N-labelled SH3 domain of nephrocystin-1 for NMR and ITC) (human); test: NMR titration; 1H-15N HSQC of 15N NPHP1-SH3 (0.3 mM) with added peptide (0, 0.5, 1, 1.5, 2, 3, 4 equivalents for peptPP2); fast exchange; both purified

GLRPALPSRLARAS (N-terminus acetylated, C-terminus amidated) [peptPP2]
binding [1]: binds weakly
binding [2]: no binding

B1: endogenous NPHP1 (mouse embryonic fibroblasts) (protein, UniProt Q9QY53 1-687)
chain: MLARRPRDPLQALRRRGQELKLQVDSLVTESQLTGALEPSKRREIYQRCIQLKQAVDENKNTLQKLNKADEAAPVGNYEQRKEEEHSLLEKLACQLQELAVSISRKDALKVEAHSDKEEDDTTEDDEEETGGEEEESEGDGEGKQEQASPKQAETETVTYIALGDFAAQQTGDLTFKKGDVLHIIEKKPDGWWLAKDAEGVEGLIPRTYLEPYNKEDKLESSEGSEEGGEEDGEEDVEVVDETADGAQVKQRTDSHWSAVRKAISEQINTVDVLATMGAIPAGFRPSTLSQLLDEAGNQFRASYFLQPELTTSQLAFRDLTWDAKAGTIMSRPSRVSLILTLWSCKMIPLPGTSIQVLSRHIRLCLFDGSKVLSNIHTVRAVWQPKKPKTWTFSPQVTGILPCLLDGDCFIRSNSSTPDLGILFELGISYIRNSTGERGELSCGWVFLKLFDASGVPIPAKTYELFLNGGTPYEKGVEVDPSVSRRAQGSVFRQMISVRRQPQLLVKLRSLNRRSRAMLSLLPETLVGSMCSAHLLIFYRQILGDVLLRDRTNLQSADLISHPVLATFPLLLEQPDVMDALRSSWSEKESTLKRAEKRDKELLKAEFLLVYHDCVLPLLHSTLLPPFRWAEEETEAARWKAIADFLKQSRENEGSLKALLSPDGVHKPFDLSEQTFDFLGEIRKNSG
binding [3]: binds
binding [4]: binds

GLRPALLSRLARAS (N-terminus acetylated, C-terminus amidated) [peptPL2]
binding [5]: no binding

RGSKVSPDVPPPS (N-terminus acetylated, C-terminus amidated) [peptPP1]
binding [5]: no binding

RGSKVSPDVLPPS (N-terminus acetylated, C-terminus amidated) [peptPL1]
binding [5]: no binding
